Source: PubChem BioAssay AID485344 (National Center for Advancing Translational Sciences (NCATS), 2010)
Several values for one entry are separate records, joined by “and”; a condition that tells them apart may be missing. Identical values can stand only once. Hit rate of the full screen: of about 340,000 compounds, about 6,900 (2%) were called active. No stated cut-off is given here; in the data, active means inhibition above about 30%; inactive means below that, where a call was filed. Only a part is listed here, and it is no random draw. Where no call is shown, the source filed none.

These molecules were tested against D(2) dopamine receptor (Homo sapiens) (UniProt P14416) (assay: HTS Assay for Allosteric Antagonists of the Human D2 Dopamine Receptor: Primary Screen for Antagonists). Details: HEK293 TREx D2 cells, calcium flux, dopamine EC80; at 10 µM; stronger effect = higher value.
UniProt P14416, sequence (P14416 whole entry, looked up): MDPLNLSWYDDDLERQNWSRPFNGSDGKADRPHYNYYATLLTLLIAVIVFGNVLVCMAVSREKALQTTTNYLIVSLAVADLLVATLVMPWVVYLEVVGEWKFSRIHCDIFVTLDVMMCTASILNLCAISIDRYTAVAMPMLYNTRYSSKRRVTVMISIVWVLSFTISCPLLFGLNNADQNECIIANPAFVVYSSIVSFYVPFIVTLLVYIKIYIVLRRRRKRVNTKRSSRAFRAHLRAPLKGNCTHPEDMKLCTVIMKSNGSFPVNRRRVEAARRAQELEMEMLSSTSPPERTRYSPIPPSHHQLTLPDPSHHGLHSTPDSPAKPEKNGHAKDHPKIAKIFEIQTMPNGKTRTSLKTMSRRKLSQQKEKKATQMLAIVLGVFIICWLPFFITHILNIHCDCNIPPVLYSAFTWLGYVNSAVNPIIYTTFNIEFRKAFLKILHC
Outline: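 Cells plated overnight at 30 C with tetracycline; no-wash calcium dye, 30–90 min RT; 10 s baseline; compound pinned; 180 s read; EC80 dopamine added; another 180 s read.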
Further: 0% is about no effect.

| Structure (SMILES) | inhibition |
| --- | --- |
| CCCN1CCN(CCCNC(=O)c2ccc(CS(=O)c3ccc(OC)cc3)o2)CC1 (configuration not stated) | -0.708% |
| Cc1ccc(NC(=O)Cn2nnc3sc4c(c3c2=O)CCCC4)c(C)c1 | 7.15% |
| Cc1cc(C)c(Cn2c3ccccc3c3cnn(CC(=O)NCC(C)c4ccccc4)c(=O)c32)c(C)c1 (configuration not stated) | -3.36% |
| O=C(/C=C/c1ccc(Cl)cc1)Nc1nc(-c2cccs2)ns1 | 14.4% |
| COc1cc(C2c3c(-c4ccccc4O)n[nH]c3C(=O)N2CCO)ccc1OCC(C)C (configuration not stated) | -6.21% |
| COc1ccc(Cc2c(C)nn(-c3nc(C)c(C(=O)Nc4ccc(C)cc4C)s3)c2C)cc1 | 12.8% |
| COc1ccc(NC(=O)c2oc3ccc(S(=O)(=O)N4CCC5(CC4)OCCO5)cc3c2C)cc1Cl | 3.86% |
| COc1ccc(Cn2c3nc4ccccc4nc3c3c(=O)n(Cc4ccco4)c(C)nc32)cc1 | active: 33.4% |
| Cc1cccc(Oc2ccc(NC(=O)CCC(=O)OCC(=O)c3ccc(Br)cc3)cc2)c1C | -17.7% |
| COc1cccc(C(C(=O)NCc2ccccc2)N(C(=O)Cn2nnc3ccccc32)c2cccc(C(C)=O)c2)c1 (configuration not stated) | 9.98% |
| O=C(NCCCN1CCN(c2ccccc2F)CC1)C1CCCN(S(=O)(=O)c2cnc[nH]2)C1 (configuration not stated) | active: 64.7% |
| Cc1ccccc1CSCCNC(=O)CN(c1ccccc1)S(=O)(=O)N(C)C | -1.04% |
| COc1ccccc1CNC(=O)c1cc2ccc3ccc(C)[nH]c3c2n1 | 5.38% |
| COc1ccccc1NC(=O)CNC(c1ccccc1)c1ccccc1 | active: 36% |
| Cc1cccc(CC(=O)Nc2cccc(-c3nc4cccnc4s3)c2)c1 | 23% |
| CCN1CCc2c(sc(-n3cccc3)c2C(C)NC(=O)Nc2ccccc2C)C1 (configuration not stated) | -0.705% |
| Cc1ccc(C)c(N2CCN(S(=O)(=O)c3csc(C(N)=O)c3)CC2)c1 | -9.43% |
| CCn1nnc2cc(C(=O)Nc3cccc(C)c3C)ccc21 | 0.0507% |
| COc1ccc(NC(=O)C2CCC(CNS(=O)(=O)c3cccs3)CC2)cc1OC (configuration not stated) | 28% |
| CC1CCCN(Cc2c(O)ccc3c4c(c(=O)oc23)CCCC4)C1 (configuration not stated) | active: 36% |
| Cc1cccc(N2CCN(CC(O)COc3ccccc3Cl)CC2)c1 (configuration not stated) | active: 71.1% |
| Clc1ccccc1-c1nnc(-c2ccccc2CNc2ccccc2)o1 | -17.1% |
| COC(=O)c1cc2sc(C)cc2n1CC(=O)Nc1ccc(C)cc1Cl | 0.268% |
| CC(=O)c1cc(-c2ccccc2)n(CC(=O)NCc2ccccc2C)c1C | 27.8% |
| COc1ccc(-c2noc(CSc3nnc(-c4ccccc4)n3C)n2)cc1 | 2.48% |

| Structure (SMILES) | inhibition |
| --- | --- |
| CCCOC(=O)c1ccc(Nc2c(C(=O)OCC)cnc3c(C)cc(Cl)cc23)cc1 | 9.41% |
| Cc1oc2c(cc(NS(=O)(=O)c3ccc(F)cc3)c3ccccc32)c1C(=O)OCc1ccccc1 | -2.38% |
| COc1ccc(C)cc1NC(=O)CN1CCN(S(=O)(=O)c2ccc(Br)cc2)CC1 | 8.05% and active: 33.5% |
| Cc1cccc(C)c1NC(=O)CN1C(=O)c2ccccc2Sc2ncccc21 | 13.5% |
| CCc1cccc(N2C(=O)N(Cc3c(F)cccc3Cl)c3ccccc3S2(=O)=O)c1 | -11.8% |
| CCn1cc(C(=O)Nc2ccc(C(C)C)cc2)c2cc(OC)c(OC)cc2c1=O | -14.3% |
| Cc1ccc2cc3cc(C(=O)N(C)c4ccccc4C)oc3nc2c1 | 16.6% |
| CCOC(=O)c1ccc(NC(=O)c2c(NCc3cc(OC)ccc3OC)sc3c2CCC3)cc1 | -1.37% |
| CCc1cnc2c(c1SCCC(C)C)c(=O)n(C)c(=O)n2C | -2.25% |
| CC(C)CCn1c(=O)c2sccc2n2c(CCCC(=O)NC(C)c3ccccc3)nnc12 (configuration not stated) | 3.25% |
| CC(=O)c1cccc(NC(=O)CSc2nc3c(=O)n(C)c(=O)n(C)c3n2C)c1 | -18.2% |
| Cc1cccc(OCC(=O)Nc2ccccc2C(=O)OCc2cc(=O)n3nc(C4CC4)sc3n2)c1 | 3.92% |
| Cc1ccc(CCNC(=O)c2cc3c(=O)n(C)c4ccccc4c3n2C)cc1 | -9.03% |
| Cc1cccc(N2CCN(c3nc4ccccc4c4nc(-c5cccnc5)nn34)CC2)c1C | 14.2% |
| CC(C)CCNC(=O)c1ccc2c(c1)nc1n2CCCCC1 | -4.01% |
| CCCC(=O)Nc1ccc2nc(SCc3ccc(C)cc3)sc2c1 | -5.64% |
| OC(CNCC1COc2ccccc2O1)COc1ccc(Cl)cc1 (configuration not stated) | active: 104% |
| Nc1ccc2oc(Cc3ccc(Cl)cc3)nc2c1 | -13.1% |
| COc1ccc(C)cc1NC(=O)Cc1c(C(=O)O)c(C)cn1C | 4.05% |
| COCCNc1ccc(-c2nc(-c3ccccn3)no2)cc1[N+](=O)[O-] | 17.7% |
| CCC1(CC)NC(=O)N(CC(=O)OCC(=O)Nc2ccc(OC(F)(F)F)cc2)C1=O | active: 61.4% |
| CC(=O)Nc1ccc(S(=O)(=O)N(Cc2ccccc2)Cc2ccccc2)cc1 | -2.38% |
| C=Cc1ccc(Cn2c(=O)n(CC3CCC(C(=O)NC(C)C)CC3)c(=O)c3sccc32)cc1 (configuration not stated) | 1.77% |
| O=C(NCc1ccco1)c1ccc2c(c1)N(Cc1ccccc1F)C(=O)c1ccccc1S2(=O)=O | -19.7% |
| CCn1c(=O)cc(SCC(=O)NCc2ccc(C)cc2)c2ccccc21 | 10.1% |

| Structure (SMILES) | inhibition |
| --- | --- |
| CCCCNC(=O)c1ccc2c(c1)NC(=O)C(CS(=O)(=O)Cc1ccc(F)cc1Cl)N2 (configuration not stated) | -0.619% |
| COc1cccc(NC(=O)CCN2CCN(CCO)CC2)c1 | -3.29% |
| COc1ccc(N(C)C(=O)c2cc3c(s2)-c2ccccc2OC3)cc1 | 1.13% |
| CCCCNc1nc2c(c(=O)n(Cc3ccccc3)c(=O)n2C)n1C | 2.08% |
| Cc1ccc(Cl)cc1N1CCN(C(=O)C2CCCN(Cc3nc(-c4cccc(Cl)c4)oc3C)C2)CC1 (configuration not stated) | 11.5% |
| Cc1ccc(NC(=O)C2CCCN(S(=O)(=O)c3ccc4c(c3)CCCC(=O)N4)C2)cc1Cl (configuration not stated) | 8.56% |
| Cc1ccc(NC(=O)Cn2c(=O)ccc3cc(S(=O)(=O)N4CCCC4)ccc32)cc1N(C)C | 1.5% |
| Cc1cc(C(=O)Nc2cccc(C)c2C)c2c(C)nn(-c3cccc(F)c3)c2n1 | 0.21% |
| O=C(NCc1ccc(Cl)cc1)c1ccc2c(c1)N(Cc1ccccc1F)C(=O)c1ccccc1S2=O (configuration not stated) | -24.8% |
| CSc1ccc(CN2CCCC(CO)(Cc3ccccc3)C2)cc1 (configuration not stated) | active: 51% |
| CCC(C(=O)NCCc1ccc(Cl)cc1)n1ccc2cc(S(=O)(=O)N3CCCCC3)ccc21 (configuration not stated) | 0.476% |
| COc1ccc(CCNC(=O)C(=O)NCC(c2cccnc2)N2CCN(c3ccccc3)CC2)cc1 (configuration not stated) | 10.9% |
| CN(C)CCCNC(=S)/N=c1\sccn1Cc1ccccc1Cl | active: 90.4% |
| CCOc1ccc(NC(=O)CN(C)S(=O)(=O)c2ccc3[nH]c4c(c3c2)CCCC4)cc1 | -8.88% |
| COc1ccc(C(=O)N2CCN(c3nc4c(C)c(Cl)ccc4s3)CC2)c(OC)c1 | 7.5% |
| Cc1ccc(NC(=O)COc2cccc3c2OC(C)(C)C3)c(O)c1 | active: 30.2% |
| Cc1cc(-c2ccc(S(=O)(=O)Nc3cccc(Cl)c3C)cc2)on1 | 6.11% |
| Cc1ccc(C(C)C)c(OCC(=O)Nc2nc3c(s2)CCCC3)c1 | -4.35% |
| CCCCCOC(=O)c1ccc(Nc2nc(C(=O)OCC)nc3ccccc23)cc1 | 4.61% |
| COCCNC(=O)CN(c1cc(Cl)ccc1OC)S(=O)(=O)c1ccc(C)c([N+](=O)[O-])c1 | active: 58.8% |
| COc1ccc(S(=O)(=O)Nc2cc(-c3cn4cccc(C)c4n3)ccc2C)cc1C | 4.66% |
| Cc1ccc2nc(-c3c[nH]c4ccccc34)c(Nc3ccccc3)n2c1 | -8.97% |
| O=C(NCCc1ccc(F)cc1)C(=O)NCC(c1ccc2c(c1)OCO2)N1CCOCC1 (configuration not stated) | -14.4% |
| Cc1coc2c1c(C)cc1oc(=O)c(CC(=O)NCc3ccc(Cl)cc3)c(C)c12 | 9.88% |
| CCOc1ccccc1N1CCN(Cc2cccc(OC)c2OC)CC1 | active: 87.4% |

| Structure (SMILES) | inhibition |
| --- | --- |
| COc1ccccc1N1CCN(S(=O)(=O)c2cc(-c3cc(C)no3)ccc2C)CC1 | 1.52% |
| CCc1ccc2oc(C(=O)NCCc3ccc(OC)c(OC)c3)cc(=O)c2c1 | 6.75% |
| O=C(c1ccc2c(c1)OCCO2)N(Cc1cccnc1)c1nc2ccc(Cl)cc2s1 | -7.11% |
| COc1cccc(CN2C(=O)C3(SCC(=O)N3c3cc(C)cc(C)c3)c3ccccc32)c1 (configuration not stated) | -0.0855% |
| CCC(C)NC(=O)c1ccccc1NC(=O)C1CCN(S(=O)(=O)Cc2ccccc2)CC1 (configuration not stated) | -2.37% |
| Cc1ccc(-c2nnn(CC(=O)N(CC(=O)NCCC(C)C)c3ccc(F)cc3)n2)cc1 | 19.7% |
| Nc1c(Cl)ncnc1NCc1ccccc1 | active: 56.1% |
| COc1ccc2nc(N(Cc3cccnc3)C(=O)c3ccco3)sc2c1 | -4.38% |
| COc1ccc(-n2cc(C(=O)NCc3ccc(Cl)cc3)c3ccccc3c2=O)cc1 | 13.7% |
| CC1CN(C(=O)CCC(=O)NCc2cccs2)c2cc(Cl)ccc2O1 (configuration not stated) | 27.5% |
| Cc1ccc2c(c1)c1c(c(=O)n(-c3ccccc3)c(=O)n1CC(=O)NCCC1=CCCCC1)n2C | 9.66% |
| COc1ccc(N(C(=O)c2ccccc2C)S(=O)(=O)c2ccc(C)cc2)cc1 | -2.37% |
| CCOC(=O)c1cc(-c2ccc(C)cc2)n(CC(=O)Nc2ccc(OC)c(Cl)c2)c1C | -5.35% |
| COc1ccccc1C(=O)NCCN1CCN(c2ccccc2)CC1 | active: 82.5% |
| Cc1ccc(CCNC(=O)c2cc3sccc3n2Cc2ccc(Cl)cc2)cc1 | 0.663% |
| COc1ccccc1Oc1nc2c(C)cccn2c(=O)c1/C=C(\C#N)c1nc2ccccc2[nH]1 | -2.01% |
| Cc1nn(CC(=O)NCc2cccc(F)c2)c(=O)c2c(C)n(-c3ccc(Cl)cc3)nc12 | -13.4% |
| COc1cccc(CNC(=O)CCc2nc(-c3ccc(C)cc3)no2)c1 | 5.07% |
| COc1ccccc1NC(=O)CSc1oc(-c2ccco2)nc1S(=O)(=O)c1ccc(Br)cc1 | 25.2% |
| COc1ccc(-c2nnc(SCC(=O)Oc3cccc(C)c3C)o2)cc1 | 0.845% |
| Cc1cc(C)c(S(=O)(=O)NCC(c2ccc(N(C)C)cc2)N2CCc3ccccc32)c(C)c1 (configuration not stated) | -18.3% |
| Cc1ccccc1C(=O)NNC(=S)NC(=O)c1ccc(Cl)cc1Cl | active: 30.9% |
